± gives the standard deviation of the averaged measurements. This is one part of the list.
System: PfAP2-I AP2 domain 3 (GST-tagged)
Test: gcPBM binding intensity (ln(normalized median fluorescence intensity)); higher = stronger DNA binding
How it was run: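 An Agilent 4 × 180k array of primer-extended double-stranded 36-bp intergenic genomic probes, with negative controls, was incubated for 1 h with GST-tagged P. falciparum DNA-binding domains expressed in E. coli. Alexa488 anti-GST antibody detected bound protein, scanned at 488 nm. Binding intensity is the highest Masliner-normalised natural-log median intensity across replicate spots of either probe orientation.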

“TTGAAATTAAATGACATACACACTATATTATATATT [CACACA_site3135]” and “AAAAATAAAGTAAAAGCATGCTAGTATATGGAAAAT [TGCATGCA_site486]” are within error of each other in “gcPBM binding intensity (ln)” value: 7.51 ± 0.4 for the first, 8.39 ± 0.52 for the second.

First: CATATACGCAAACACACACACATATATATATATATA [CACACA_site501]
Second: AGGTATATATATTTATGTACTTAAAATGAGAAAATA [XGTACX_site8337]
The “gcPBM binding intensity (ln)” value of the first is higher: 9.58 ± 0.21 for the first, 7.93 ± 0.23 for the second.

“TATAATAATATTTATTGTACAATTAGGTTAATTCAT [XGTACX_site1986]” and “AATCTAATGTAATGCATACACACAACTATCCATCAA [CACACA_site535]” are within error of each other in “gcPBM binding intensity (ln)” value: 7.83 ± 0.51 for the first, 8.23 ± 0.31 for the second.

Going from “AATATACGAAATTGTGCACACATATATTTATGTATG [CACACA_site1510]” to “TAAAATGAAGGAATATGTACATAAATAAACATATAT [XGTACX_site6266]”, the “gcPBM binding intensity (ln)” value falls from 10.5 ± 0.16 to 7.61 ± 0.62.

Compared with “CATATATGATATATTAGTACATATATATATATATAT [XGTACX_site1574]”, “CGATATAAAGATATTAGTACATATGCATGCTTGTCT [XGTACX_site8629]” is lower in “gcPBM binding intensity (ln)” value: 9.36 ± 0.49 for the first, 7.57 ± 0.74 for the second.

“AAACTCTCTTATATTAAACACACATATATATATGTA [CACACA_site8865]” and “AAAAACTTTTCAAGTAGTACCATATCTACAATAGTA [XGTACX_site8927]” are within error of each other in “gcPBM binding intensity (ln)” value: 7.69 ± 0.62 for the first, 7.54 ± 0.43 for the second.

“AAACAAAAGATATATACACACTAAACATAAAAAAAA [CACACA_site6161]” and “CCTTTATTAAATAAATGTACATATTTTTGTGTTCTT [XGTACX_site2052]” are within error of each other in “gcPBM binding intensity (ln)” value: 7.75 ± 0.56 for the first, 7.9 ± 0.47 for the second.

Compared with “GTTGGTAGGATGTATGGTACACGTAGTATTTTTCTT [XGTACX_site2]”, “AATAAAAATAAAATTGTATATTTTAAATGAAAATAA [CACACA_negctrl_site898]” is lower in “gcPBM binding intensity (ln)” value: 8.28 ± 0.13 for the first, 7.36 ± 0.51 for the second.

Compared with “CAAATTGGGAAATTTTGTACATATAATAAGGATACC [XGTACX_site7728]”, “GATAATGAATGATGCACACTAAAAATATTCTACAAC [CACACA_site3622]” is higher in “gcPBM binding intensity (ln)” value: 7.94 ± 0.51 for the first, 8.66 ± 0.16 for the second.

“CCGTATATTTTATATAGTACTCATCATATATTTTTA [XGTACX_site5560]” and “TTTTTAATTTTTTTTAAACACACACCGTACATTCAA [CACACA_site7925]” are within error of each other in “gcPBM binding intensity (ln)” value: 7.69 ± 0.65 for the first, 8.17 ± 0.17 for the second.

First: TATATATATACATATTGTACATATTACATGCTATTA [XGTACX_site1184]
Second: TCATTTTAAATATGTGTGCACGTTATAATTTACACA
The “gcPBM binding intensity (ln)” value of the first is lower: 8.66 ± 0.42 for the first, 10.5 ± 0.15 for the second.

“TATATACTTTATAAATGTACATATAATGTATTATTT [XGTACX_site7313]” and “ATAGATAAATTTACGGGTACTAAAATGGAATATGAA [XGTACX_site8637]” are within error of each other in “gcPBM binding intensity (ln)” value: 7.57 ± 0.36 for the first, 8.19 ± 0.56 for the second.

“ATTCACATATTATCTTTACACACTATATATAAGTTT [CACACA_site8901]” and “TATTTTACAATAACAATACACACTATAATATATATA [CACACA_site1391]” are within error of each other in “gcPBM binding intensity (ln)” value: 8.05 ± 0.76 for the first, 8.04 ± 0.43 for the second.

First: TGTGTTCAGTATTGCACACACACAACCAAATAAAAA [CACACA_site379]
Second: CATCAAAATGCTACATGTACATATATATAATATATT [XGTACX_site5207]
The “gcPBM binding intensity (ln)” value of the first is higher: 10 ± 0.71 for the first, 7.91 ± 0.4 for the second.

Going from GAAATGAACAAGTGGGTGCGTATTAATTACATATTA to “AATATATATAAATAAACACACACAAATATAATAAAA [CACACA_site9176]”, the “gcPBM binding intensity (ln)” value falls from 9.785 ± 0.035 to 7.97 ± 0.59.

“AAAATTATATATTATAGTACATAAAATTTTGATATA [XGTACX_site994]” and “TTAGTTATTATAATTTGTACACAAATGGTAAAGTAT [XGTACX_site2343]” are within error of each other in “gcPBM binding intensity (ln)” value: 7.63 ± 0.34 for the first, 8.26 ± 0.45 for the second.

First: TTTGTACCGGCATTTTTTTTTTCTTTTTTTTTCCAA [XGTACX_negctrl_site323]
Second: TATTAAAAATGTTAAGTGCAAAAATAAAAATTGTGG [GTGCAC_site9854]
The “gcPBM binding intensity (ln)” value of the first is lower: 7.64 ± 0.4 for the first, 9.46 ± 0.53 for the second.

“TATAAATTATATATTTGTACGTATATCACATATATA [XGTACX_site7053]” and “TACATGAATATATAAAGAAAAAAAAAAAAACACACA [XGTACX_negctrl_site350]” are within error of each other in “gcPBM binding intensity (ln)” value: 7.63 ± 0.33 for the first, 7.96 ± 0.32 for the second.

Compared with “TTCTCATAATTAAATAGTACATATTTTAATAATCAC [XGTACX_site6116]”, “TTTATTGAATAAAATGCACACGCATGCGTTATTTAT [CACACA_site9154]” is higher in “gcPBM binding intensity (ln)” value: 7.89 ± 0.16 for the first, 8.98 ± 0.31 for the second.

“TATATGTTATATTTAACACACATATAAGGTACATAT [CACACA_site612]” and “TGTTAAAGAGAAAGTACTACACATATTATGTGTTTT [XGTACX_site1435]” are within error of each other in “gcPBM binding intensity (ln)” value: 8.04 ± 0.43 for the first, 7.7 ± 0.44 for the second.

First: TTTTATAAACAGAGGGGTACGGGAAAAAAAAAAAAA [XGTACX_site1480]
Second: TTTTTAAACCATGTTGTGCACATTTTTTTTGGATTT
The “gcPBM binding intensity (ln)” value of the first is lower: 8.31 ± 0.73 for the first, 10.2 ± 0.14 for the second.

“TTAAAAAAAATTATTTGTACTTAAAAATTTTATATT [XGTACX_site8751]” and “AGAAAAAAAAAACACACACACACACCGTCAATATAA [CACACA_site7895]” are within error of each other in “gcPBM binding intensity (ln)” value: 7.56 ± 0.17 for the first, 7.79 ± 0.42 for the second.

In the case of “TATGTATGTTAGTGTGCACACATAAATATTATATAT [CACACA_site9121]”, the “gcPBM binding intensity (ln)” value is reported as 9.56 ± 0.057.

Reference: the supplement of paper PMC11417369
